These results are taken from paper PMC12820563, “FoxP3 forms a head-to-head dimer in vivo and stabilizes its multimerization on adjacent microsatellites”.

The list shows a part of the results.

In this test the target is T1, MBP-FoxP1dN (Mus musculus, UniProt P58462 326-579).
T1 sequence: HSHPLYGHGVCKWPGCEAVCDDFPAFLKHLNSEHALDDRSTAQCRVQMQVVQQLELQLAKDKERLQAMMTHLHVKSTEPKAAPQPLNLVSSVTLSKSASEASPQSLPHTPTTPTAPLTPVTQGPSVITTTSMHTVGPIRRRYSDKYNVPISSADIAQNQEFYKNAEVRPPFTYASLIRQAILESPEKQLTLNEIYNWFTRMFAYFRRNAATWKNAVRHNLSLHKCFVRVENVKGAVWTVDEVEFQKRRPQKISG
Nature of the test: PD-seq (MBP pull-down with sequencing); 20 mM Tris-HCl pH 7.5, 100 mM NaCl, 1.5 mM MgCl2, 0.4 uM protein, 0.1 uM dsDNA library, 30 min, room temperature, amylose pull-down; high values mean tight binding. Particulars: protein: recombinant; tags: His6-MBP; chain copies: 2; dsDNA, one strand shown. In short, it runs like this:
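Binding is given as reads-per-million enrichment, pull-down over input, with replicates pooled. The bait was an N-terminus-lacking mouse FoxP3 or FoxP1 fragment with a His6-MBP tag, expressed in E. coli and used at 0.4 µM with 0.1 µM Klenow-filled degenerate double-stranded DNA library for 30 min at room temperature in Tris pH 7.5 buffer with NaCl and MgCl2. Amylose resin pull-down with three washes was followed by proteinase K release, PCR barcoding and Illumina sequencing.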
Consider “GATGATTGTTCTCCCAGCTGATGAATTGAGACCATCGAGTAAACAAATTTTCCTAATCTTTCTGTTCAAGCGCCATCTAC”, for which the binding signal is 0.888 RPM ratio (pull-down/input).
With “GATGATTGTTCTCCCAGCTGATGAATTCTAGCTTTCGAGTAAACAAATTTTCCTAATCTTTCTGTTCAAGCGCCATCTAC” the figure was 1.03 RPM ratio (pull-down/input).
With “GATGATTGTTCTCCCAGCTGATGAATTTAATATTTCGAGTAAACAAATTTTCCTAATCTTTCTGTTCAAGCGCCATCTAC” the figure was 1.01 RPM ratio (pull-down/input).
As for “GATGATTGTTCTCCCAGCTGATGAATTGCCCCTGTCGAGTAAACAAATTTTCCTAATCTTTCTGTTCAAGCGCCATCTAC”, the figure is 0.834 RPM ratio (pull-down/input); as for “GATGATTGTTCTCCCAGCTGATGAATTACCATGCTCGAGTAAACAAATTTTCCTAATCTTTCTGTTCAAGCGCCATCTAC”, 1.04 RPM ratio (pull-down/input).
On to “GATGATTGTTCTCCCAGCTGATGAATTCGATTATTCGAGTAAACAAATTTTCCTAATCTTTCTGTTCAAGCGCCATCTAC”, for which the binding signal was 0.908 RPM ratio (pull-down/input).
With “GATGATTGTTCTCCCAGCTGATGAATTATCTCAATCGAGTAAACAAATTTTCCTAATCTTTCTGTTCAAGCGCCATCTAC”, the binding signal was 1.03 RPM ratio (pull-down/input).
In the case of “GATGATTGTTCTCCCAGCTGATGAATTAAAGAACTCGAGTAAACAAATTTTCCTAATCTTTCTGTTCAAGCGCCATCTAC”, the binding signal was 0.848 RPM ratio (pull-down/input).
On to “GATGATTGTTCTCCCAGCTGATGAATTGCGTGGGTCGAGTAAACAAATTTTCCTAATCTTTCTGTTCAAGCGCCATCTAC”, for which the binding signal is 1.01 RPM ratio (pull-down/input).
As for “GATGATTGTTCTCCCAGCTGATGAATTGGATGACTCGAGTAAACAAATTTTCCTAATCTTTCTGTTCAAGCGCCATCTAC”, the figure is 0.865 RPM ratio (pull-down/input); as for “GATGATTGTTCTCCCAGCTGATGAATTTTACCTCTCGAGTAAACAAATTTTCCTAATCTTTCTGTTCAAGCGCCATCTAC”, 0.807 RPM ratio (pull-down/input).
On to “GATGATTGTTCTCCCAGCTGATGAATTATGTGTGTCGAGTAAACAAATTTTCCTAATCTTTCTGTTCAAGCGCCATCTAC”, for which the binding signal is 1.4 RPM ratio (pull-down/input).
As for “GATGATTGTTCTCCCAGCTGATGAATTCATTTCGTCGAGTAAACAAATTTTCCTAATCTTTCTGTTCAAGCGCCATCTAC”, the figure is 0.877 RPM ratio (pull-down/input).
With “GATGATTGTTCTCCCAGCTGATGAATTCGGGGGTTCGAGTAAACAAATTTTCCTAATCTTTCTGTTCAAGCGCCATCTAC” the figure was 0.801 RPM ratio (pull-down/input); with “GATGATTGTTCTCCCAGCTGATGAATTCTGCTAGTCGAGTAAACAAATTTTCCTAATCTTTCTGTTCAAGCGCCATCTAC”, 0.857 RPM ratio (pull-down/input); with “GATGATTGTTCTCCCAGCTGATGAATTGAGGCGCTCGAGTAAACAAATTTTCCTAATCTTTCTGTTCAAGCGCCATCTAC”, 0.896 RPM ratio (pull-down/input).
In the case of “GATGATTGTTCTCCCAGCTGATGAATTTGTCCAGTCGAGTAAACAAATTTTCCTAATCTTTCTGTTCAAGCGCCATCTAC”, the binding signal was 0.963 RPM ratio (pull-down/input).
As for “GATGATTGTTCTCCCAGCTGATGAATTCTGGCTCTCGAGTAAACAAATTTTCCTAATCTTTCTGTTCAAGCGCCATCTAC”, the binding signal is 0.755 RPM ratio (pull-down/input).
Regarding “GATGATTGTTCTCCCAGCTGATGAATTTATTAGGTCGAGTAAACAAATTTTCCTAATCTTTCTGTTCAAGCGCCATCTAC”, the binding signal was 1.05 RPM ratio (pull-down/input).
As to “GATGATTGTTCTCCCAGCTGATGAATTAACTAATTCGAGTAAACAAATTTTCCTAATCTTTCTGTTCAAGCGCCATCTAC”, the binding signal was 0.998 RPM ratio (pull-down/input).
Turning to “GATGATTGTTCTCCCAGCTGATGAATTGGAGACATCGAGTAAACAAATTTTCCTAATCTTTCTGTTCAAGCGCCATCTAC”, the binding signal is 0.957 RPM ratio (pull-down/input).
With “GATGATTGTTCTCCCAGCTGATGAATTCTGATCATCGAGTAAACAAATTTTCCTAATCTTTCTGTTCAAGCGCCATCTAC” the figure was 0.901 RPM ratio (pull-down/input); with “GATGATTGTTCTCCCAGCTGATGAATTTCGACTTTCGAGTAAACAAATTTTCCTAATCTTTCTGTTCAAGCGCCATCTAC”, 0.852 RPM ratio (pull-down/input); with “GATGATTGTTCTCCCAGCTGATGAATTCGAGAGATCGAGTAAACAAATTTTCCTAATCTTTCTGTTCAAGCGCCATCTAC”, 0.771 RPM ratio (pull-down/input).
With “GATGATTGTTCTCCCAGCTGATGAATTGAAAGCTTCGAGTAAACAAATTTTCCTAATCTTTCTGTTCAAGCGCCATCTAC” the figure was 0.86 RPM ratio (pull-down/input); with “GATGATTGTTCTCCCAGCTGATGAATTTTATGTATCGAGTAAACAAATTTTCCTAATCTTTCTGTTCAAGCGCCATCTAC”, 1.71 RPM ratio (pull-down/input); with “GATGATTGTTCTCCCAGCTGATGAATTGTTCCTGTCGAGTAAACAAATTTTCCTAATCTTTCTGTTCAAGCGCCATCTAC”, 0.999 RPM ratio (pull-down/input).
On to “GATGATTGTTCTCCCAGCTGATGAATTAGGCGGGTCGAGTAAACAAATTTTCCTAATCTTTCTGTTCAAGCGCCATCTAC”, for which the binding signal was 0.832 RPM ratio (pull-down/input).
In the case of “GATGATTGTTCTCCCAGCTGATGAATTTGCATACTCGAGTAAACAAATTTTCCTAATCTTTCTGTTCAAGCGCCATCTAC”, the binding signal is 1.15 RPM ratio (pull-down/input).
With “GATGATTGTTCTCCCAGCTGATGAATTAAAGATTTCGAGTAAACAAATTTTCCTAATCTTTCTGTTCAAGCGCCATCTAC” the figure was 0.971 RPM ratio (pull-down/input).
As for “GATGATTGTTCTCCCAGCTGATGAATTTATCCTGTCGAGTAAACAAATTTTCCTAATCTTTCTGTTCAAGCGCCATCTAC”, the figure is 1.03 RPM ratio (pull-down/input); as for “GATGATTGTTCTCCCAGCTGATGAATTCGGGCTTTCGAGTAAACAAATTTTCCTAATCTTTCTGTTCAAGCGCCATCTAC”, 0.832 RPM ratio (pull-down/input).
